# Laboratory results from PMC4336329 (PLoS ONE, 2015).
# Hit rate of the full screen: of about 310,000 compounds, about 2,200 (0.71%) showed an effect of 50% or more. Effects have a minus sign here. The list shows a part of the results.
# Target: human ether-à-go-go-related gene (hERG) potassium channel (human, UniProt Q12809)
# Experiment: primary screen, population patch clamp on CHO cells stably expressing hERG
# Sequence of human ether-à-go-go-related gene (hERG) potassium channel (Q12809 whole entry, looked up): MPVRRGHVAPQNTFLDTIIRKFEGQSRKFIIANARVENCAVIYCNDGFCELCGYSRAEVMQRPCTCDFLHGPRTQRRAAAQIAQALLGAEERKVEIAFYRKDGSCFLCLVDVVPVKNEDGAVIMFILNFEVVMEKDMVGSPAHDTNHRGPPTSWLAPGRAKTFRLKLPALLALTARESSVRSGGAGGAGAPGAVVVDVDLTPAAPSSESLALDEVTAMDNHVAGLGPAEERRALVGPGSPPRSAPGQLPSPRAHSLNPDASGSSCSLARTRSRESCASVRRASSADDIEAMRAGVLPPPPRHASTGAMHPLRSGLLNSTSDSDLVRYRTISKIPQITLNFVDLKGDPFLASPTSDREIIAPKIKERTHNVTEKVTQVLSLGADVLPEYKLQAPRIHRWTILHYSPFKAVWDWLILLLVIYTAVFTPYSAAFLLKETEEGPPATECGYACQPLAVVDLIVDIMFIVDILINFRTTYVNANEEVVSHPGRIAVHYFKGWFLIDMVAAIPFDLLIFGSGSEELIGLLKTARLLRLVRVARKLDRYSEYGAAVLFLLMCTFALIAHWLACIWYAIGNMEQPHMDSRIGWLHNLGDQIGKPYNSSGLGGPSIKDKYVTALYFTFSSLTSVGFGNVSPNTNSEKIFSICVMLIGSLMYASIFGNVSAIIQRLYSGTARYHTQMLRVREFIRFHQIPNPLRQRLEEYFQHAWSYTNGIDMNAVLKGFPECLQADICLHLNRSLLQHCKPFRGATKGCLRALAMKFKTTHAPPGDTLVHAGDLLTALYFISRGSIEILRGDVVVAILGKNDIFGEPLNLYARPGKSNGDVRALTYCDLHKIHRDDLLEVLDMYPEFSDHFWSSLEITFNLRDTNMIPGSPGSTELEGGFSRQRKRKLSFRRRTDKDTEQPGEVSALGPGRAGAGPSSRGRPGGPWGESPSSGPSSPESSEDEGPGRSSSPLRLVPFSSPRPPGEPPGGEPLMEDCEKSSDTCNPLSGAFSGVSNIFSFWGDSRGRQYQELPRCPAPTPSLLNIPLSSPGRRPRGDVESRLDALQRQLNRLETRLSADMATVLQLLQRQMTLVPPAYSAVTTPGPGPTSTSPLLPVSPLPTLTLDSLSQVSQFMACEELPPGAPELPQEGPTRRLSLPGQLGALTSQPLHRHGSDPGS
row,SMILES,"hERG current change (%, negative = inhibition) at 1uM"
1,O=C(CSc1nnc2ccccn12)NC(=O)NC1CCCC1,11.8%
2,COc1cc2c(cc1OC)C(c1ccc(Cl)cc1)CC(=O)N2 (centres unmarked),14.9%
3,CCOc1ccccc1NC(=O)COC(=O)Cc1ccc(-c2ccccc2)cc1,5.37%
4,CC(C)NC(=O)c1ccc(S(=O)(=O)N(C)C)cc1,4.29%
5,Cc1ccc(S(=O)(=O)/N=C(\CN2CCOCC2)N2CCCC2)cc1,12.1%
6,Cc1ccc(OCC(=O)Nc2ccc3oc(=O)ccc3c2)c(C)c1,2.93%
7,CCOc1cc(N2CCOCC2)c(OCC)cc1NC(=O)CN1CCSC1=O,1.68%
8,COc1ccc(-n2c(SCc3cn4c(C)cccc4n3)nc3ccccc3c2=O)cc1OC,4.37%
9,COc1ccc(CCNC(=O)CN(C)S(=O)(=O)c2ccc3nc(C)sc3c2)cc1OC,13%
10,O=C(CNC(=O)c1ccc(Br)o1)NCC(=O)OCc1ccccc1,1.1%
11,COc1ccc(N(C(=O)c2cccc([N+](=O)[O-])c2)S(=O)(=O)c2ccc3c(c2)n(C)c(=O)n3C)cc1,-12%
12,CCCn1c(SCC(=O)NNC(=O)c2ccccc2)nnc1-c1cccnc1,5.05%
13,C=CCNC(=O)c1cc2c(=O)n3ccccc3nc2s1,14.1%
14,CCOC(=O)c1sc(=NC(=O)c2cccc(Br)c2)n(C)c1C,26.1%
15,C#Cc1ccc(CN2CCN(Cc3ccsc3)C(CCO)C2)cc1 (centres unmarked),9.5%
16,Cc1cccc(-n2[nH]c(C)c(C=Nc3ccc4[nH]c(=O)[nH]c4c3)c2=O)c1,3.23%
17,CN1CCN(C(=S)NCCc2ccccc2)CC1.O=C(O)C(=O)O,0.335%
18,CN(Cc1ccccc1)C(=O)CCn1c(=O)oc2ccccc21,-2.35%
19,O=C(COC(=O)C1CCCO1)Nc1cccc(C(F)(F)F)c1 (centres unmarked),15.2%
20,CN(c1ccccc1)S(=O)(=O)c1cccc(NC(=O)Nc2ccc(Cl)cc2C#N)c1,-4.02%
21,NC(=O)COC(=O)c1ccc2c(c1)C(=O)N(Cc1ccco1)C2=O,9.91%
22,CCCS(=O)(=O)N1CCC(C(=O)N2CCC3(CC2)OCCO3)CC1,-13.4%
23,COc1ccc(C(C(=O)NC2CCCCC2)N(C(=O)c2ccccn2)c2cccnc2)c(OC)c1 (centres unmarked),20.3%

row,SMILES,"hERG current change (%, negative = inhibition) at 1uM"
1,COc1ccc(CNC(=O)C2CCC(=O)N(CCCN3CCCC3=O)C2)c(OC)c1 (centres unmarked),8.88%
2,CC(C)(C)NC(=S)NNC(=O)[C@H]1C[C@@H]1c1ccccc1,11.6%
3,O[C@@H]1CN(Cc2ccccc2Cl)CC[C@H]1N1CCOCC1,14.4%
4,CCn1nc(NC(=O)CC(C)C)c2cc3ccc(C)cc3nc21,22.7%
5,NC(=O)NCc1ccccc1Cl,18.4%
6,CCc1c(C)nc(SCC(=O)Nc2nc(-c3ccc(OC)cc3)cs2)[nH]c1=O,7.13%
7,Cc1ccc(S(=O)(=O)Nc2cccc(-c3cn4ccsc4n3)c2)cc1,13.6%
8,Cn1cccc1Cc1nnc(SCC(=O)Nc2ccc3c(c2)OCCO3)n1-c1ccc(F)cc1,5.74%
9,CC(C)NCC(=O)C12CC3CC(CC(C3)C1)C2,8.46%
10,CCC(Sc1nc2ccncc2[nH]1)C(=O)Nc1cc(Cl)ccc1C (centres unmarked),-8.86%
11,CN1CCN(C(=O)C2=C[C@H](c3coc4ccccc4c3=O)C[C@H](OCc3ccc(CO)cc3)O2)CC1,3.49%
12,COc1ccc(C(=O)c2c(N)sc3c2CCN(C(=O)OC(C)(C)C)C3)cc1,13.1%
13,COc1ccc(OC)c(NC(=O)[C@@H]2CCCN2C(=O)c2cccs2)c1,11.3%
14,CC(=O)N1CCCc2cc(S(=O)(=O)N3CCCC(C(=O)NCc4ccc(Cl)cc4)C3)ccc21 (centres unmarked),14.1%
15,CCOC(=O)/C=c1\s/c(=C(\C#N)C(N)=O)n(-c2ccccc2)c1=O,7.02%
16,Cc1cc(C)c(C(=O)Cn2nc(C)c([N+](=O)[O-])c2C)cc1C,-1.65%
17,COc1cccc2cc(C(=O)N3CCN(C(=O)c4ccco4)CC3)c(=O)oc12,10.1%
18,CN(CCNC(=O)C1CCC(=O)N(Cc2cccc(F)c2)C1)CCc1ccccc1 (centres unmarked),-14.8%
19,Cc1ccc(OCc2nnc(SCC(=O)Nc3ccc(N4CCOCC4)cc3)o2)cc1,9.76%
20,COc1ccc(Br)cc1CNCCc1ccc2c(c1)OCO2,-4.27%
21,COc1ccc(S(=O)(=O)N2CCN(c3cccc(C)c3C)CC2)cc1,4.69%
22,CCC(=O)Nn1c(C)nnc1C,9.41%
23,O=C(CSc1ncn[nH]1)NCCc1ccccc1,3.9%

row,SMILES,"hERG current change (%, negative = inhibition) at 1uM"
1,O=C(C1CCN(C2CC(=O)N(c3cccc(Cl)c3)C2=O)CC1)N1CCCC1 (centres unmarked),14%
2,COc1ccc(CCNS(=O)(=O)c2csc(C(N)=O)c2)cc1OC,16.3%
3,CS(=O)(=O)c1cccc(NC(=O)C2CC2)c1,6.54%
4,COc1ccccc1C(=O)NNC(=O)c1ccc(Br)cc1,12.3%
5,CCNC(=O)CCS(=O)(=O)c1ccc2ccccc2c1,10.5%
6,COc1ccc(C(=O)Nc2cc(-c3nn4c(C)nnc4s3)ccc2C)cc1,-10.1%
7,Cc1cc(NC(=O)CCC(=O)N(C2CC2)C(C(=O)NC(C)(C)C)c2ccccc2Cl)no1 (centres unmarked),12.6%
8,COc1ccc(CC2(CO)CCN(Cc3cnc(-c4ccccc4C)nc3)CC2)cc1,9.46%
9,COc1ccc(C(=O)NNC2=NC(C)(C)Cc3cc(C)c(C)cc32)cc1,22.9%
10,CCOC(=O)CSc1cc(C)nc2ccc(OC)cc12,7.94%
11,O=C1Nc2ccccc2N(O)N1c1ccc(S(=O)(=O)Nc2ccccn2)cc1,11.1%
12,Cc1cc(NC(=O)CSc2ncnc3sccc23)no1,10.1%
13,COC(C/C=C/[C@@H](O)[C@@H](C)OCc1ccccc1)OC,11.4%
14,CCC/C=C(\CCC)C(NP(=O)(c1ccccc1)c1ccccc1)c1ccccc1 (centres unmarked),13.5%
15,CC(=O)OCC[N+](C)(C)C.[Cl-],20.1%
16,COC(=O)C1=C(CSc2nc3c(cc2C#N)CN(C)CC3)OC(N)=C(C#N)C1c1ccc(F)cc1 (centres unmarked),-2.64%
17,Cc1cccc2cc(C#N)c(NCCNS(=O)(=O)c3ccc4c(c3)OCCO4)nc12,12%
18,Cc1cc(O)cc(O)c1C=NCc1ccco1,6.59%
19,COc1ccc(C)cc1NC(=O)CN1C(=O)COc2ccc(S(=O)(=O)N3CCOCC3)cc21,12%
20,N#C/C(=C/c1ccc(Br)s1)C(=O)NCCc1c[nH]c2ccccc12,2.08%
21,CCn1cc(CN2CCC(n3nccc3NC(=O)CCOc3ccccc3)CC2)cn1,-13.1%
22,CC1(C)CC2CC(C)(CN2C(=O)CCCN2C(=O)c3ccccc3C2=O)C1 (centres unmarked),-2.37%
23,COC(=O)c1ccc(C)c(NC(=O)CCc2ccc(OC)cc2)c1,7.12%

row,SMILES,"hERG current change (%, negative = inhibition) at 1uM"
1,O=C(CCCCn1c(=O)[nH]c2ccccc2c1=O)NC1CCN(Cc2ccccc2)CC1,2.6%
2,Cc1sc(NC(=O)C2=COCCO2)nc1-c1ccc(Br)cc1,11.6%
3,CC(C)Sc1ncnc2c1cnn2-c1ccccc1,2.46%
4,COc1cccc(NC(=O)c2c(C)cc(C)cc2CC(C)(C)C(=O)O)c1,14.5%
5,CCCCN(C(=O)CCC(=O)Nc1cc(C)on1)C(C(=O)NC1CCCC1)c1ccccc1C (centres unmarked),-1.28%
6,COc1ccc(C(CNC(=O)c2ccc(-c3ccccc3)cc2)N(C)C)cc1OC (centres unmarked),13.3%
7,O=C(c1ccc2c3c(cccc13)CC2)C1CCCN(C(=O)c2cccnc2)C1 (centres unmarked),6.86%
8,CC(C)(O)CCc1c(-c2ccc(O)cc2O)oc2c3c(cc(O)c2c1=O)OC(C)(C)C=C3,14.9%
9,CC(C)(C)C1CCC(C(=O)Nc2cccnc2)CC1 (centres unmarked),4.46%
10,Cc1onc(-c2c(Cl)cccc2Cl)c1C(N)=S,8.83%
11,NNC(=O)C1CCCN1S(=O)(=O)c1ccc(Cl)cc1 (centres unmarked),-9.82%
12,Cn1c(SCC(=O)Nc2ccccc2)nc2c([nH]c3ccccc32)c1=O,18.3%
13,Cc1ccc(CN(Cc2ccc(C)o2)C(=S)NCC(=O)O)cc1,12.9%
14,Cc1ccc(N(CC(=O)NCc2ccc3c(c2)OCO3)S(C)(=O)=O)cc1,19.2%
15,CCCCNS(=O)(=O)c1ccc(OC)c(C)c1,13.5%
16,COc1ccccc1NC(=O)CSc1nccn1Cc1ccc(F)cc1,13.4%
17,CC1=C(C(=O)Nc2ccc(F)c(F)c2)C(c2cccs2)NC(=S)N1 (centres unmarked),15.1%
18,Cc1cc(C)nc(NS(=O)(=O)c2ccc(N=NN(C)C)cc2)n1,9.32%
19,O=C(CSc1nc2ccc(Cl)cc2[nH]1)N1CCN(C(=O)c2ccco2)CC1,-15.7%
20,C/C(=N\N=C1\NC(=O)CC(C(=O)O)S1)c1cccs1 (centres unmarked),8.79%
